The record followed here is ChEMBL document CHEMBL5724801, “EUbOPEN Chemogenomics Library - Multiplex” (2024).

Type in all cases: toxicity, cell-based
The test system of one series is U2OS. Description: Multiplex assay against U2OS. To be noted: human. The gist of the method:
(§1)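 Per cents of healthy-nucleus cells form the tubulin, mitochondrial-mass and membrane-permeability phenotype values. Live cells were stained at seeding with Hoechst33342, BioTracker Green Microtubule Cytoskeleton Dye, MitoTracker Red and Annexin V Alexa Fluor 680. After compound addition they were imaged on a CQ1 microscope at 37°C and 5% CO2, and CellPathfinder machine-learning gating split them into Hoechst high-intensity objects or normal cells, normal cells into healthy, pyknosed or fragmented nuclei, and pyknosed cells into mitotic or apoptotic.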

A further series has as its system Fibroblast. The series is described as follows: Multiplex assay against human fibroblast. The gist of the method:
as §1

The test system of the next series is HEK-293T. Description: Multiplex assay against HEK293T. As to conditions: human. The gist of the method:
as §1

The mark [1] stands for this setting: 12 h, 10 µM, compound concentration 10 uM.
Setting [2] is: 24 h, 10 µM, compound concentration 10 uM.
[3] abbreviates: 48 h, 10 µM, compound concentration 10 uM.
The mark [4] stands for this setting: 12 h, 1 µM, compound concentration 1 uM.
Setting [5] is: 48 h, 1 µM, compound concentration 1 uM.
Setting [6] is: 24 h, 1 µM, compound concentration 1 uM.

Each structure is given as a SMILES string. A number of entries come with more than one value. The list is limited to them. An entry can have further records. Values given together are repeats (runs, samples, wells, individuals or studies).

For the molecule `O=C(Nc1cc(C(F)(F)F)ccc1N1CCCCC1)c1ccncc1`, the “Population Mitochondria Different-Phenotype (%)” value in the series with U2OS (setting [1]) is 1.28% and 23.68%; in the series with U2OS (setting [2]), 0.59% and 15.75%; with U2OS (setting [3]) it was 0.44% and 11.26%. Also, the “Total Cell Count” value was 587 and 183 in the series on U2OS (setting [2]); 1047 and 294 in the series with U2OS (setting [3]); 559 and 165 in the series with HEK-293T (setting [6]); 1326 and 227 in the series on HEK-293T (setting [5]). For the same molecule, the “Population Apoptotic (%)” value with Fibroblast (setting [4]) is 7.41% and 24.32%; with Fibroblast (setting [3]) it was 38.89% and 9.09%. For the same molecule, the “Population Tubulin-Different-Phenotype (%)” value in the series on Fibroblast (setting [5]) is 6.32% and 22.73%; in the series with HEK-293T (setting [4]), 3.98% and 42.11%; with HEK-293T (setting [5]), 1.68% and 30%; in the series on HEK-293T (setting [3]), 7.26% and 41.5%. In the series with HEK-293T (setting [4]), the “Population Healthy Nuclei (%)” value is 54.49% and 12.93%.
For the molecule `CC(C)CNc1nc(N2CCN(CC3CCCOC3)CC2)ncc1C(=O)NCc1ccccc1` (stereo not given), the “Population Mitochondria Different-Phenotype (%)” value in the series on U2OS (setting [4]) is 1.24% and 35%; in the series with U2OS (setting [6]) it was 1.99% and 35.85%; in the series with U2OS (setting [5]) it was 0.73% and 17.99%; in the series on HEK-293T (setting [4]) it was 35% and 10%. For the same molecule, the “Total Cell Count” value is 467 and 139 in the series with U2OS (setting [6]); 793 and 173 in the series with U2OS (setting [5]); 497 and 152 in the series with HEK-293T (setting [6]); 973 and 190 in the series with HEK-293T (setting [5]). Further, the “Population Mitotic Cells (%)” value in the series with Fibroblast (setting [4]) is 66% and 19.78%; with Fibroblast (setting [1]), 60.32% and 12.75%; in the series on Fibroblast (setting [6]), 67.39% and 18.42%. Moreover, the “Population Tubulin-Different-Phenotype (%)” value is 14.29% and 70.97% in the series on Fibroblast (setting [4]); 3.69% and 50.59% with HEK-293T (setting [5]). In addition, the “Population Membrane Permeable-Phenotype (%)” value with Fibroblast (setting [1]) was 7.69% and 26.32%; with Fibroblast (setting [2]), 2.78% and 35.14%; with Fibroblast (setting [3]) it was 2.38% and 20%. Besides, the “Population Fragmented Nuclei (%)” value in the series on Fibroblast (setting [6]) is 27.52% and 8.51%. In addition, the “Population Healthy Nuclei (%)” value with HEK-293T (setting [4]) is 44.16% and 13.99%; in the series on HEK-293T (setting [1]) it was 30.36% and 8.03%; in the series with HEK-293T (setting [6]), 63.91% and 19.74%; in the series on HEK-293T (setting [2]) it was 42.94% and 14.18%. In addition, in the series on HEK-293T (setting [5]), the “Population Pyknosed Nuclei (%)” value is 15.52% and 48.42%.
Regarding `CCOC(=O)c1cnn(-c2ccc(NC(=O)C(Cl)=C(Cl)Cl)cc2)c1C(F)(F)F`, the “Population Mitochondria Different-Phenotype (%)” value with U2OS (setting [1]) is 3.7% and 42.86%; in the series with Fibroblast (setting [1]), 3.85% and 22.58%; with Fibroblast (setting [5]) it was 24.22% and 2.06%. Moreover, the “Population Mitotic Cells (%)” value with U2OS (setting [3]) is 13.37% and 1.82%; in the series with Fibroblast (setting [2]) it was 62.24% and 19.35%; in the series with Fibroblast (setting [3]) it was 64.52% and 16.13%; in the series with HEK-293T (setting [2]), 36.78% and 9.42%; with HEK-293T (setting [3]) it was 46.42% and 4.14%. Further, in the series with HEK-293T (setting [4]), the “Population Healthy Nuclei (%)” value is 55.46% and 17.91%. The “Population Tubulin-Different-Phenotype (%)” value in the series with HEK-293T (setting [4]) is 4.43% and 33.33%; in the series with HEK-293T (setting [1]), 10.53% and 61.54%; in the series on HEK-293T (setting [6]), 19.26% and 5.88%; with HEK-293T (setting [5]) it was 1.57% and 37.11%. Further, the “Total Cell Count” value is 557 and 160 in the series with HEK-293T (setting [6]); 1337 and 195 in the series with HEK-293T (setting [5]). For the same molecule, the “Population Apoptotic (%)” value in the series on HEK-293T (setting [5]) was 5.13% and 18.09%. For the same molecule, the “Population Pyknosed Nuclei (%)” value in the series on HEK-293T (setting [5]) is 11.69% and 48.21%.
As to `O=C(NCc1cccc(O)c1)Nc1nc(-c2ccncc2)cs1`, the “Population Mitochondria Different-Phenotype (%)” value with U2OS (setting [1]) was 0.65% and 15.48%; in the series with U2OS (setting [2]), 0.52% and 17.78%; with Fibroblast (setting [5]) it was 23.73% and 4.76%. Moreover, the “Total Cell Count” value with U2OS (setting [1]) was 378 and 115; with U2OS (setting [2]), 463 and 133; with U2OS (setting [5]), 969 and 307; with U2OS (setting [3]) it was 670 and 163; with HEK-293T (setting [4]), 412 and 128; in the series on HEK-293T (setting [6]), 476 and 120. In addition, in the series with HEK-293T (setting [5]), the “Total Cell Count” value is 619 and 149. In addition, the “Population Fragmented Nuclei (%)” value with Fibroblast (setting [4]) is 20.69% and 4.3%; in the series on Fibroblast (setting [6]) it was 17.51% and 5.05%; in the series on Fibroblast (setting [3]), 12.11% and 1.35%. Also, the “Population Tubulin-Different-Phenotype (%)” value with Fibroblast (setting [3]) was 6.63% and 28.02%; in the series on HEK-293T (setting [4]), 5.53% and 50%; in the series with HEK-293T (setting [1]), 11.11% and 40.3%; in the series on HEK-293T (setting [5]) it was 0.56% and 26.73%.
In the case of `Cc1cc(C)c(NC(=O)C2CC3CCC2C3)c(C)c1` (stereo not given), the “Total Cell Count” value with U2OS (setting [3]) is 1144 and 347; with HEK-293T (setting [6]), 589 and 171; in the series on HEK-293T (setting [5]), 1409 and 198; with HEK-293T (setting [3]), 917 and 247. Besides, the “Population Mitochondria Different-Phenotype (%)” value was 15.52% and 2.34% in the series on Fibroblast (setting [5]); 17.16% and 4% with HEK-293T (setting [6]). Further, the “Population Tubulin-Different-Phenotype (%)” value in the series on Fibroblast (setting [3]) was 7.27% and 23.59%; in the series on HEK-293T (setting [4]), 4.55% and 22.5%; with HEK-293T (setting [1]) it was 3.7% and 16.22%; in the series with HEK-293T (setting [5]), 1.88% and 50.41%; in the series with HEK-293T (setting [3]), 1.3% and 32.39%. Moreover, the “Population Pyknosed Nuclei (%)” value in the series with HEK-293T (setting [5]) is 10.43% and 36.92%.
As for `Cc1sc2c(c1C)C(c1ccc(Cl)cc1)=N[C@@H](CC(=O)NCCCCCCCCNC(=O)COc1cccc3c1C(=O)N(C1CCC(=O)NC1=O)C3=O)c1nnc(C)n1-2` (stereo not given in full), the “Population Fragmented Nuclei (%)” value with U2OS (setting [4]) is 43% and 13%; with U2OS (setting [6]), 42% and 12%; in the series with Fibroblast (setting [4]) it was 10% and 34%. Also, the “Population Membrane Permeable-Phenotype (%)” value is 2% and 17% in the series on U2OS (setting [1]); 4% and 21% with U2OS (setting [2]); 1% and 23% with Fibroblast (setting [4]); 3% and 16% with Fibroblast (setting [6]); 3% and 17% with Fibroblast (setting [2]); 0% and 27% in the series on Fibroblast (setting [5]). Further, the “Population Tubulin-Different-Phenotype (%)” value with U2OS (setting [2]) was 2% and 14%. Further, the “Population Mitochondria Different-Phenotype (%)” value was 4% and 23% in the series on Fibroblast (setting [4]); 3% and 20% in the series with Fibroblast (setting [6]). Besides, the “Population Hoechst High Intensity Objects (%)” value with Fibroblast (setting [5]) was 27% and 8%; with HEK-293T (setting [4]) it was 9% and 30%; in the series on HEK-293T (setting [6]), 6% and 30%; with HEK-293T (setting [2]), 12% and 39%; in the series on HEK-293T (setting [5]) it was 2% and 15%. Moreover, the “Population Mitotic Cells (%)” value in the series on Fibroblast (setting [3]) is 13% and 42%.
For the molecule `CN(C)CCCn1cc(C2=C(c3c[nH]c4ccccc34)C(=O)NC2=O)c2ccccc21` [GF-109203], the “Population Fragmented Nuclei (%)” value in the series on U2OS (setting [4]) was 1.81% and 18.63%; in the series with U2OS (setting [6]), 0.98% and 17.09%; in the series with U2OS (setting [5]) it was 2.41% and 16.26%; with Fibroblast (setting [4]) it was 12.9% and 2.07%. Moreover, the “Population Mitochondria Different-Phenotype (%)” value in the series with U2OS (setting [4]) is 0.29% and 13.79%; with U2OS (setting [1]) it was 1.11% and 73.68%; with U2OS (setting [2]), 12.87% and 89.66%; with HEK-293T (setting [1]), 47.86% and 14.29%. The “Total Cell Count” value is 912 and 290 in the series on U2OS (setting [5]); 499 and 166 in the series with HEK-293T (setting [6]); 871 and 186 in the series on HEK-293T (setting [5]). For the same molecule, the “Population Membrane Permeable-Phenotype (%)” value is 6.45% and 25.93% with U2OS (setting [3]); 1.74% and 16.28% with Fibroblast (setting [3]). In addition, the “Population Apoptotic (%)” value in the series with Fibroblast (setting [6]) is 1.69% and 14.29%; in the series on Fibroblast (setting [2]), 4.29% and 19.18%; in the series on Fibroblast (setting [5]), 7.14% and 33.33%. Besides, the “Population Healthy Nuclei (%)” value was 48.83% and 13.79% in the series on HEK-293T (setting [4]); 37.5% and 9.52% in the series on HEK-293T (setting [1]); 47.09% and 11.18% in the series with HEK-293T (setting [2]). For the same molecule, the “Population Tubulin-Different-Phenotype (%)” value was 10.18% and 33.33% in the series with HEK-293T (setting [4]); 2.05% and 51.65% with HEK-293T (setting [5]); 26.39% and 83.87% in the series with HEK-293T (setting [3]). For the same molecule, the “Population Pyknosed Nuclei (%)” value in the series with HEK-293T (setting [5]) is 15.38% and 50%.
For `CCCN1CCC[C@@H]2Cc3n[nH]cc3C[C@H]21.Cl` [QUINPIROLE HYDROCHLORIDE], the “Population Mitotic Cells (%)” value with U2OS (setting [1]) is 41% and 0%. Besides, the “Population Tubulin-Different-Phenotype (%)” value in the series with Fibroblast (setting [6]) is 13% and 41%.
`CCOc1c2c(c(OCC)c3ncccc13)CN(c1ccc(CS(=O)(=O)NC(=O)Cc3ccccc3OC)cc1C)C2=O`: in the series on U2OS (setting [4]), the “Population Mitotic Cells (%)” value was 35% and 0%. Also, the “Population Membrane Permeable-Phenotype (%)” value in the series with Fibroblast (setting [6]) is 2% and 18%.
`CN1C[C@H](C(=O)N[C@]2(C)O[C@@]3(O)[C@@H]4CCCN4C(=O)[C@H](Cc4ccccc4)N3C2=O)C[C@@H]2c3cccc4[nH]cc(c34)C[C@H]21.CS(=O)(=O)O` [DIHYDROERGOTAMINE MESYLATE]: in the series on U2OS (setting [1]), the “Population Mitotic Cells (%)” value is 28% and 0%. Further, the “Population Tubulin-Different-Phenotype (%)” value was 8% and 42% in the series on Fibroblast (setting [1]); 15% and 46% in the series with Fibroblast (setting [2]).
